This is one part of the list. At the low end of the ranking the order means little.

The target of this assay is GST-SBP-SLBP (stem-loop binding protein) (UniProt Q14493). Kind of assay: targeted RNA Bind-n-Seq.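 Further: DESeq read counts versus GST-SBP nonspecific binding control pulldown.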 The conditions noted are these: RBNS binding buffer: 25 mM Tris pH 7.5, 150 mM KCl, 3 mM MgCl2, 0.1% Tween, 0.5 mg/mL BSA, 1 mM DTT; 27 nM protein, 750 pM RNA pool; temperature not stated; high values mean tight binding.
“GGUCACGUCUCAAUCAACUCUUCGUCAGGAGUUUCCUCCUGUAAACUCAACAGCUCGCAGUCAAG”: the binding signal (log2 fold change) is -0.0206.
Turning to “GGUCACGUCUCAAUCAACUCUAUUCCCAGGGAAAUCCCUGGUUAAUUCAACAGCUCGCAGUCAAG”, the binding signal (log2 fold change) worked out at 0.122.
In the case of “GGUCACGUCUCAAUCAACUCUCAAGAGGGGGGGAAAACCCCUUUGCCCUCGUAUUCAACAGCUCGCAGUCAAG”, the binding signal (log2 fold change) is -0.159.
As for “GGUCACGUCUCAAUCAACUCAUCUUCAGGAGUUUUCUCCUGCAUACUCAACAGCUCGCAGUCAAG”, the binding signal (log2 fold change) is 0.127.
For “GGUCACGUCUCAAUCAACUCAACUUCAGGAGUUUACUCCUGUUAUUUCAACAGCUCGCAGUCAAG”, the binding signal (log2 fold change) was -0.0153.
As to “GGUCACGUCUCAAUCAACUCAUCUUCCAGGGAAAUCCCUGGCUUAUUCAACAGCUCGCAGUCAAG”, the binding signal (log2 fold change) worked out at 0.0142.
As to “GGUCACGUCUCAAUCAACUCCACAGAGGGGGGGAAAACCCCUUUACCCUCCAACUCAACAGCUCGCAGUCAAG”, the binding signal (log2 fold change) is -0.0663.
In the case of “GGUCACGUCUCAAUCAACUCUCAGGAGGGGGGGAAAACCCCUUUACCCUCAAUCUCAACAGCUCGCAGUCAAG”, the binding signal (log2 fold change) was -0.0842.
As to “GGUCACGUCUCAAUCAACUCAUUCCCAGGAGUUUCCUCCUGCAUUUUCAACAGCUCGCAGUCAAG”, the binding signal (log2 fold change) was found to be 0.00217.
As for “GGUCACGUCUCAAUCAACUCAAUUCCAGGAGUUUUCUCCUGCAAACUCAACAGCUCGCAGUCAAG”, the figure is 0.0933; as for “GGUCACGUCUCAAUCAACUCAAUCCCAGGAGUUUUCUCCUGUAUUUUCAACAGCUCGCAGUCAAG”, 0.00353; as for “GGUCACGUCUCAAUCAACUCCUAAGAGGGGGGGAAAACCCCUUUACCCUCCGUAUCAACAGCUCGCAGUCAAG”, -0.376.
Regarding “GGUCACGUCUCAAUCAACUCUUCCCCCAGGGAAAUCCCUGGCUUAUUCAACAGCUCGCAGUCAAG”, the binding signal (log2 fold change) is -0.15.
The value for “GGUCACGUCUCAAUCAACUCAAUUCCAGGAGUUUCCUCCUGCAUUCUCAACAGCUCGCAGUCAAG” was 0.195.
With “GGUCACGUCUCAAUCAACUCAUCCUCCAGGGAAAGCCCUGGCUAUCUCAACAGCUCGCAGUCAAG”, the binding signal (log2 fold change) came out at 0.109.
As for “GGUCACGUCUCAAUCAACUCCAAAGAGGGGGGGAAAACCCCUUUGCCCUCCAACUCAACAGCUCGCAGUCAAG”, the figure is 0.0593; as for “GGUCACGUCUCAAUCAACUCUAUUUCCAGGGAAACCCCUGGCGUUUUCAACAGCUCGCAGUCAAG”, 0.041; as for “GGUCACGUCUCAAUCAACUCUUCCUCCAGGGAAACCCCUGGUUUAUUCAACAGCUCGCAGUCAAG”, -0.12.
In the case of “GGUCACGUCUCAAUCAACUCUAUUUCAGGAGUUUACUCCUGCAUUUUCAACAGCUCGCAGUCAAG”, the binding signal (log2 fold change) amounted to 0.241.
With “GGUCACGUCUCAAUCAACUCAUGUCCAGGAGUUUACUCCUGCUUUUUCAACAGCUCGCAGUCAAG”, the binding signal (log2 fold change) stood at 0.058.
For the sequence “GGUCACGUCUCAAUCAACUCAAUUCCCAGGGAAAUCCCUGGUAUACUCAACAGCUCGCAGUCAAG”, the binding signal (log2 fold change) came to 0.0394.
“GGUCACGUCUCAAUCAACUCUUUUCCCAGGGAAACCCCUGGCAUUCUCAACAGCUCGCAGUCAAG”: the binding signal (log2 fold change) stood at 0.144.
Turning to “GGUCACGUCUCAAUCAACUCAUCCGAGGGGGGGAAAACCCCUUUACCCUCAUCAUCAACAGCUCGCAGUCAAG”, the binding signal (log2 fold change) was -0.0838.
For “GGUCACGUCUCAAUCAACUCUAUUUCAGGAGUUUCCUCCUGUUUUGUCAACAGCUCGCAGUCAAG”, the binding signal (log2 fold change) came to 0.0259.
“GGUCACGUCUCAAUCAACUCUUAAGAGGGGGGGAAAACCCCUUUGCCCUCAUUUUCAACAGCUCGCAGUCAAG”: the binding signal (log2 fold change) was -0.276.
In the case of “GGUCACGUCUCAAUCAACUCUCAAGAGGGGGGGAAAACCCCUUUACCCUCCAUGUCAACAGCUCGCAGUCAAG”, the binding signal (log2 fold change) was -0.398.
The value for “GGUCACGUCUCAAUCAACUCUAUUUCCAGGGAAAUCCCUGGCAUUCUCAACAGCUCGCAGUCAAG” was -0.0812; that for “GGUCACGUCUCAAUCAACUCAAAAGAGGGGGGGAAAACCCCUUUACCCUCAUCAUCAACAGCUCGCAGUCAAG” was 0.265.
On to “GGUCACGUCUCAAUCAACUCUAGUCCCAGGGAAAGCCCUGGUUAUUUCAACAGCUCGCAGUCAAG”, for which the binding signal (log2 fold change) was found to be 0.076.
For the sequence “GGUCACGUCUCAAUCAACUCUACAGAGGGGGGGAAAACCCCUUUGCCCUCCAAAUCAACAGCUCGCAGUCAAG”, the binding signal (log2 fold change) was -0.0841.
With “GGUCACGUCUCAAUCAACUCUUCCUCCAGGGAAAGCCCUGGCAAUUUCAACAGCUCGCAGUCAAG”, the binding signal (log2 fold change) was -0.0758.
The value for “GGUCACGUCUCAAUCAACUCUCCCGAGGGGGGGAAAACCCCUUUACCCUCCAUUUCAACAGCUCGCAGUCAAG” was 0.0186; that for “GGUCACGUCUCAAUCAACUCCCUAGAGGGGGGGAAAACCCCUUUACCCUCCGCAUCAACAGCUCGCAGUCAAG” was 0.0585.
Take “GGUCACGUCUCAAUCAACUCAUGUCCCAGGGAAAGCCCUGGUUUUUUCAACAGCUCGCAGUCAAG”: the binding signal (log2 fold change) is -0.172.
For the sequence “GGUCACGUCUCAAUCAACUCAAGUCCCAGGGAAAACCCUGGCAAAUUCAACAGCUCGCAGUCAAG”, the binding signal (log2 fold change) is 0.104.
As for “GGUCACGUCUCAAUCAACUCAUCUUCAGGAGUUUUCUCCUGCGUAUUCAACAGCUCGCAGUCAAG”, the figure is 0.0807; as for “GGUCACGUCUCAAUCAACUCAAUAGAGGGGGGGAAAACCCCUUUACCCUCAUUCUCAACAGCUCGCAGUCAAG”, 0.183.
On to “GGUCACGUCUCAAUCAACUCUUCCUCAGGAGUUUACUCCUGUUUUCUCAACAGCUCGCAGUCAAG”, for which the binding signal (log2 fold change) was determined as 0.076.
With “GGUCACGUCUCAAUCAACUCAAUCUCCAGGGAAAGCCCUGGUAUUUUCAACAGCUCGCAGUCAAG”, the binding signal (log2 fold change) was -0.155.
As for “GGUCACGUCUCAAUCAACUCCUAAGAGGGGGGGAAAACCCCUUUGCCCUCGAUAUCAACAGCUCGCAGUCAAG”, the binding signal (log2 fold change) was -0.195.
As to “GGUCACGUCUCAAUCAACUCUAUUCCAGGAGUUUCCUCCUGUAUACUCAACAGCUCGCAGUCAAG”, the binding signal (log2 fold change) was -0.00294.
Regarding “GGUCACGUCUCAAUCAACUCAUCCUCAGGAGUUUACUCCUGUAAUUUCAACAGCUCGCAGUCAAG”, the binding signal (log2 fold change) was -0.0536.
The value for “GGUCACGUCUCAAUCAACUCUAACGAGGGGGGGAAAACCCCUUUACCCUCAAUGUCAACAGCUCGCAGUCAAG” was -0.116; that for “GGUCACGUCUCAAUCAACUCUUCCUCCAGGGAAAUCCCUGGCAUUCUCAACAGCUCGCAGUCAAG” was 0.141.
In the case of “GGUCACGUCUCAAUCAACUCAUCCUCCAGGGAAACCCCUGGUAUACUCAACAGCUCGCAGUCAAG”, the binding signal (log2 fold change) amounted to 0.0572.
On to “GGUCACGUCUCAAUCAACUCUUUUUCAGGAGUUUACUCCUGUUAAUUCAACAGCUCGCAGUCAAG”, for which the binding signal (log2 fold change) was -0.0221.
As to “GGUCACGUCUCAAUCAACUCAACUCCAGGAGUUUUCUCCUGUAUUCUCAACAGCUCGCAGUCAAG”, the binding signal (log2 fold change) stood at 0.112.
As for “GGUCACGUCUCAAUCAACUCAUUUUCCAGGGAAAACCCUGGCUUUCUCAACAGCUCGCAGUCAAG”, the figure is -0.182; as for “GGUCACGUCUCAAUCAACUCUAUCUCAGGAGUUUUCUCCUGCUUACUCAACAGCUCGCAGUCAAG”, 0.147; as for “GGUCACGUCUCAAUCAACUCUUCAGAGGGGGGGAAAACCCCUUUACCCUCCUACUCAACAGCUCGCAGUCAAG”, 0.0529.
The value for “GGUCACGUCUCAAUCAACUCUAUCUCAGGAGUUUCCUCCUGCUUAUUCAACAGCUCGCAGUCAAG” was -0.079; that for “GGUCACGUCUCAAUCAACUCAUCCCCAGGAGUUUCCUCCUGUAUACUCAACAGCUCGCAGUCAAG” was -0.000309.
The value for “GGUCACGUCUCAAUCAACUCAAUCUCAGGAGUUUCCUCCUGCAAUCUCAACAGCUCGCAGUCAAG” was 0.133.
On to “GGUCACGUCUCAAUCAACUCUUUUCCCAGGGAAAACCCUGGCAUUCUCAACAGCUCGCAGUCAAG”, for which the binding signal (log2 fold change) was 0.072.
With “GGUCACGUCUCAAUCAACUCAUUUCCCAGGGAAAGCCCUGGCAUUUUCAACAGCUCGCAGUCAAG”, the binding signal (log2 fold change) is -0.261.
Regarding “GGUCACGUCUCAAUCAACUCAAUUUCCAGGGAAACCCCUGGCGUAUUCAACAGCUCGCAGUCAAG”, the binding signal (log2 fold change) is -0.155.
As for “GGUCACGUCUCAAUCAACUCAUUUUCAGGAGUUUUCUCCUGUUUAGUCAACAGCUCGCAGUCAAG”, the binding signal (log2 fold change) came out at 0.111.
As for “GGUCACGUCUCAAUCAACUCUCAAGAGGGGGGGAAAACCCCUUUGCCCUCGAAUUCAACAGCUCGCAGUCAAG”, the figure is -0.262; as for “GGUCACGUCUCAAUCAACUCUACUCCCAGGGAAAGCCCUGGUAAUCUCAACAGCUCGCAGUCAAG”, -0.0134.
Turning to “GGUCACGUCUCAAUCAACUCUCCAGAGGGGGGGAAAACCCCUUUACCCUCGUCAUCAACAGCUCGCAGUCAAG”, the binding signal (log2 fold change) is -0.407.
For “GGUCACGUCUCAAUCAACUCAAUAGAGGGGGGGAAAACCCCUUUACCCUCGAAAUCAACAGCUCGCAGUCAAG”, the binding signal (log2 fold change) worked out at 0.268.
For “GGUCACGUCUCAAUCAACUCUAUUCCAGGAGUUUGCUCCUGCAUAUUCAACAGCUCGCAGUCAAG”, the binding signal (log2 fold change) is 0.0594.
For the sequence “GGUCACGUCUCAAUCAACUCAAUCCCCAGGGAAACCCCUGGUAUACUCAACAGCUCGCAGUCAAG”, the binding signal (log2 fold change) was determined as 0.0463.
Take “GGUCACGUCUCAAUCAACUCAAUUUCAGGAGUUUCCUCCUGUAUUUUCAACAGCUCGCAGUCAAG”: the binding signal (log2 fold change) is 0.047.
Regarding “GGUCACGUCUCAAUCAACUCAUUUUCAGGAGUUUACUCCUGUUUAGUCAACAGCUCGCAGUCAAG”, the binding signal (log2 fold change) was -0.00551.
As for “GGUCACGUCUCAAUCAACUCUACUUCCAGGGAAAGCCCUGGCAUAUUCAACAGCUCGCAGUCAAG”, the figure is 0.212; as for “GGUCACGUCUCAAUCAACUCUAAAGAGGGGGGGAAAACCCCUUUGCCCUCCAUUUCAACAGCUCGCAGUCAAG”, -0.274.
For the sequence “GGUCACGUCUCAAUCAACUCUUCCUCCAGGGAAACCCCUGGUAAACUCAACAGCUCGCAGUCAAG”, the binding signal (log2 fold change) was -0.163.
On to “GGUCACGUCUCAAUCAACUCAAUCUCAGGAGUUUCCUCCUGCUUAUUCAACAGCUCGCAGUCAAG”, for which the binding signal (log2 fold change) is -0.0882.
Take “GGUCACGUCUCAAUCAACUCAUCAGAGGGGGGGAAAACCCCUUUACCCUCCACUUCAACAGCUCGCAGUCAAG”: the binding signal (log2 fold change) turned out to be 0.0364.
Consider “GGUCACGUCUCAAUCAACUCAUAAGAGGGGGGGAAAACCCCUUUACCCUCAUCGUCAACAGCUCGCAGUCAAG”, for which the binding signal (log2 fold change) was -0.254.
With “GGUCACGUCUCAAUCAACUCCAACGAGGGGGGGAAAACCCCUUUACCCUCAUUCUCAACAGCUCGCAGUCAAG”, the binding signal (log2 fold change) is -0.222.
Turning to “GGUCACGUCUCAAUCAACUCCUUCGAGGGGGGGAAAACCCCUUUACCCUCAUACUCAACAGCUCGCAGUCAAG”, the binding signal (log2 fold change) turned out to be 0.0404.

Source of the values: article PMC5892938.
